# Values joined by “and” are separate entries in the source; they are usually repeats but may differ in a detail not shown here. Equal values may be shown once. Inconclusive results, whose numbers are uncertain, are shown with a selection of clear calls. For some assays here: Potencies beside an inconclusive call are fits to weak or partial responses and may not hold up. Active and inactive are the calls of the source. Unless noted, calls follow the shape of the dose curve; as a rule, active = well fitted curve in the direction sought with a large enough effect; inconclusive = small, poorly fitted or top-dose-only effect, or another doubt; inactive = no such curve, though single readings can be large; an effect the other way counts as inactive or inconclusive.
# Legend:
# [1] = qHTS Assay for Identification of Small Molecule Antagonists for NFkB Signaling Pathway (AID 895; active = well fitted inhibition curve with a large enough effect in the signal ratio, with a control signal flat, not every such curve was filed as active; inconclusive = small, poorly fitted or top-dose-only effect, or effect the other way, or a change in a side signal; the % refers to the signal ratio; also: potency is read from the fitted curve at half-maximal effect; as to activity change, negative = inhibition: % is scaled to controls: 0 for no effect and ±100 for the full control effect); conditions: NFkB beta-lactamase reporter cells, FRET ratio 460/530; Potency: stimulated with 10 pM TNF alpha unless noted; activity change, negative = inhibition: at 38.3 µM (top of the series) unless noted
# In short: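 ME-180 NFkB-bla cells (beta-lactamase under NFkB response element), plated overnight, treated with compound then 10 pM TNF alpha (about EC50) for 5 hrs at 37 C. LiveBLAzer FRET read at 460/530 nm emission, 405 nm excitation.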
# [2] = qHTS Assay for Identification of Small Molecule Antagonists for Thrombopoietin (TPO) Signaling Pathway (AID 918); conditions: TPO-dependent cell signaling reporter, antagonist mode; activity change, negative = inhibition: at 38.5 µM (top of the series); also: nearly all actives have a fitted effect of over 60% in size
# In short: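 Murine Ba/F3 cells expressing human TPO receptor and a Glycoprotein IIb promoter-luciferase reporter, IL-3-starved overnight, treated with compound plus TPO at EC50 (26 pM final). After 24 h at 37 C, luminescence read to detect inhibitors.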
# [3] = molecular target: Muscarinic acetylcholine receptor M1 (Rattus norvegicus) (UniProt P08482); assay: qHTS Assay for Antagonists of Acetylcholine Muscarinic M1 Receptor: Kinetic Measurement of Intracellular Calcium Response (AID 943); also: nearly all actives have a fitted effect of over 75% in size; also: potency is read from the fitted curve at half-maximal effect
# In short: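 CHO cells expressing rat M1 receptor, Fluo-4 loaded, preincubated 10 min with compound, then stimulated with EC80 carbachol (100 nM final). Kinetic calcium fluorescence over 4 min; response taken as peak over basal signal.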
# [4] = qHTS Assay for Identification of Small Molecule Agonists for Thrombopoietin (TPO) Signaling Pathway (AID 917); conditions: TPO signaling pathway reporter cells, agonist qHTS; Potency: stimulated with TPO at its EC50 unless noted; activity, positive = activation: at 38.5 µM (top of the series) unless noted; also: potency is read from the fitted curve at half-maximal effect; as to activity, positive = activation: % is scaled to controls: 0 for no effect and ±100 for the full control effect
# In short: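 Murine Ba/F3 cells stably expressing human TPO receptor and a Glycoprotein IIb promoter–luciferase reporter were IL-3-starved overnight, then treated with compounds plus TPO (26 pM final, its EC50) for 24 hrs at 37 C; luminescence was read.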
# [5] = molecular target: Cytochrome P450 2D6 (Homo sapiens) (UniProt P10635); assay: qHTS Assay for Inhibitors and Substrates of Cytochrome P450 2D6 (AID 891);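 also: luciferin methyl ether substrate demethylated by CYP2D6 with NADPH regeneration; potency is read from the fitted curve at half-maximal effect; nearly all actives have a fitted effect of over 60% in size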
# In short: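 Human CYP2D6 (5 nM) with 30 uM Luciferin-ME EGE (at Km) in 100 mM KPO4, compound preincubated 10 min, then NADPH regeneration system for 60 min at room temperature. Luciferin read by luminescence; normalized to 1.43 uM quinidine.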
# [6] = molecular target: Muscarinic acetylcholine receptor M1 (Rattus norvegicus) (UniProt P08482); assay: qHTS Assay for Antagonists of Acetylcholine Muscarinic M1 Receptor: Measurement of IP-One Response (AID 944); also: nearly all actives have a fitted effect of over 75% in size; also: potency is read from the fitted curve at half-maximal effect
# [7] = qHTS Assay for Identification of Small Molecule Agonists for Hypoxia Response Element Signaling Pathway (AID 914; active = well fitted activation curve with a large enough effect in the signal ratio, with a control signal flat, not every such curve was filed as active; inconclusive = small, poorly fitted or top-dose-only effect, or effect the other way, or a change in a side signal; the % refers to the signal ratio; also: potency is read from the fitted curve at half-maximal effect; as to activation: top concentration of the series differs between compounds; % of control where 0% means no effect); conditions: ME-180 (cervical carcinoma) HRE-bla reporter, beta-lactamase ratio, CoCl2, 17 h; activation: stronger effect = higher value
# In short: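 HRE-bla ME-180 cells, overnight plating in Opti-MEM with 0.5% dialyzed FBS; cpd titration + EC50 CoCl2, 17 h, 37 degrees Celsius; CCF4 2.5 h RT; 460/530 nm ratio; AC50.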
# [8] = molecular target: Cytochrome P450 3A4 (Homo sapiens) (UniProt P08684); assay: qHTS Assay for Inhibitors and Substrates of Cytochrome P450 3A4 (AID 884); also: nearly all actives have a fitted effect of over 50% in size; also: potency is read from the fitted curve at half-maximal effect; as to activity change, negative = inhibition: % is scaled to controls: 0 for no effect and ±100 for the full control effect
# In short: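 20 nM human CYP3A4 with 25 uM Luciferin-PPXE (at KM) in 200 mM KPO4, preincubated 10 min with compound; NADPH regeneration started a 60 min RT reaction. Luciferin detected by luminescence, normalized to 57 uM ketoconazole as full inhibition.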
# [9] = molecular target: Cytochrome P450 2C19 (Homo sapiens) (UniProt P33261); assay: qHTS Assay for Inhibitors and Substrates of Cytochrome P450 2C19 (AID 899); also: potency is read from the fitted curve at half-maximal effect; nearly all actives have a fitted effect of over 60% in size
# In short: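 5 nM human CYP2C19 with 10uM Luciferin-H EGE (at KM) in 50mM KPO4, compound preincubated 10 min at 37C, then NADPH regeneration for 60 min at 37C. Luciferin read by luminescence after detection reagent; normalized to 57uM ketoconazole as full inhibition.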
# Tags tell the direction and shape of the fitted curve or compound fluorescence and quenching.
# UniProt P08684, sequence (P08684 whole entry, looked up): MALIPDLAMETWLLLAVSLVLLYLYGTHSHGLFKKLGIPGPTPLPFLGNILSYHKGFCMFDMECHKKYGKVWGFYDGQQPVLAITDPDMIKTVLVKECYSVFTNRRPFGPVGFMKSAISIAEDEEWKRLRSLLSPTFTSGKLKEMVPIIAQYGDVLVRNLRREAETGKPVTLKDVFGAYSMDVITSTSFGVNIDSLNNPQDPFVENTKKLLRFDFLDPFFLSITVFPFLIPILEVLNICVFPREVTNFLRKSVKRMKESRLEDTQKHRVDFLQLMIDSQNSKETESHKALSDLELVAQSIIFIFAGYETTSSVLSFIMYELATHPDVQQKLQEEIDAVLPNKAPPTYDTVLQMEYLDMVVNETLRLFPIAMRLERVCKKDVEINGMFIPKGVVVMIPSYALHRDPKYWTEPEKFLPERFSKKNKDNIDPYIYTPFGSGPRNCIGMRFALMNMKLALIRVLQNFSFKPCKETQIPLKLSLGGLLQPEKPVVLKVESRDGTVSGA
# UniProt P08482, sequence (P08482 whole entry, looked up): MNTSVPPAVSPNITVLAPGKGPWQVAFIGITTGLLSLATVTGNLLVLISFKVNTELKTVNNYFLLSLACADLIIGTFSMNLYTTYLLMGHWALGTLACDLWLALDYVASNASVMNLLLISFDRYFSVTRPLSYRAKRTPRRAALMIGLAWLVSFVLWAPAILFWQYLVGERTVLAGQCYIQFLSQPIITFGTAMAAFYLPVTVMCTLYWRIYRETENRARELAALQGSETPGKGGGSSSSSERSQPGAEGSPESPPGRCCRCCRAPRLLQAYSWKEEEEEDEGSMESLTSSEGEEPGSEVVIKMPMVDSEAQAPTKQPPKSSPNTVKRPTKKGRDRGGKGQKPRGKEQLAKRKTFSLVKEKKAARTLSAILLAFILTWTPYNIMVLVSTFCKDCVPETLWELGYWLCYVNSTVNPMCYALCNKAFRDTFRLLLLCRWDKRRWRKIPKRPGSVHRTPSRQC
# UniProt P10635, sequence (P10635 whole entry, looked up): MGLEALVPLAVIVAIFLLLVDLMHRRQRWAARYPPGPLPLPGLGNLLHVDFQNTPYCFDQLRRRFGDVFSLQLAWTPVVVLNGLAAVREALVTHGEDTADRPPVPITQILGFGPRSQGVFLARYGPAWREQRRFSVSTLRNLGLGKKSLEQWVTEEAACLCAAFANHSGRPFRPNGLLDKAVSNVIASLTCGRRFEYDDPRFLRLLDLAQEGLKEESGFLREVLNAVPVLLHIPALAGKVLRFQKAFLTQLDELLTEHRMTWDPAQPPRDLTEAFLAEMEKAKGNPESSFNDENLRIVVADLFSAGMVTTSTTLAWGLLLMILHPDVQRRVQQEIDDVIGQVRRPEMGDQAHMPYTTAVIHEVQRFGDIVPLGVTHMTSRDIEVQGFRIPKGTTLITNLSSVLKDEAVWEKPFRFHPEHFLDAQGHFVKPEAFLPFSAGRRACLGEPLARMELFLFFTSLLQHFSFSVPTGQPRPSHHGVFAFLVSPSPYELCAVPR
# UniProt P33261, sequence (P33261 whole entry, looked up): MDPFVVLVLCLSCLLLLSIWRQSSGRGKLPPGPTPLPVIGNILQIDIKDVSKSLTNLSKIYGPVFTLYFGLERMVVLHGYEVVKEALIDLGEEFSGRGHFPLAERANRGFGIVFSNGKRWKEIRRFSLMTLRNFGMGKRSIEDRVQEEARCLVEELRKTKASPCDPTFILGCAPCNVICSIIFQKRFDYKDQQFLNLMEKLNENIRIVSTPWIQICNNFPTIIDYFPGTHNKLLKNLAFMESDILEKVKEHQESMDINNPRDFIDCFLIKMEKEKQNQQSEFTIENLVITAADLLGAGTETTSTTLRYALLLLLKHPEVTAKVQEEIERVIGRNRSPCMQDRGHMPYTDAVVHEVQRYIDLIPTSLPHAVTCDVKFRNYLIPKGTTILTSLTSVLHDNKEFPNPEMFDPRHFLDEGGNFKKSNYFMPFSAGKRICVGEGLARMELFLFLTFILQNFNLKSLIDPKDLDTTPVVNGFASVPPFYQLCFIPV
smiles,measurement,setting,value
COc1ccc2c3c1O[C@@H]1C(=O)CC[C@@]4(O)[C@@H](C2)N(CC2CC2)CC[C@]314,Potency,[1],inactive
same,"activity change, negative = inhibition",[2],inconclusive: -15% [phenotype inactive]
same,Potency,[3],"inconclusive: 17.8 µM [inhibitor, partial curve, poor fit]"
C[C@@]12CC[C@H]3[C@@H](CCC4=C(O)C(=O)CC[C@]43C)[C@H]1CCC2=O,Potency,[1],inactive
same,Potency,[4],"inconclusive: 12.6 µM [inhibitor, partial curve] [setting not given]"
same,Potency,[3],"inconclusive: 0.0316 µM [inhibitor, full curve, poor fit]"
COc1ccc2c(c1)CN([C@H](C)[C@@H]1CC[C@@H]3[C@H]4CC[C@H]5C[C@@H](O)CC[C@@]5(C)[C@H]4CC[C@]31C)CO2,Potency,[5],active: 3.16 µM
C[C@@]12CC[C@H]3[C@@H](CC[C@@H]4C[C@H](O)CC[C@]43C)[C@H]1CC[C@H]2O,"activity change, negative = inhibition",[1],inconclusive: -46.2%
same,Potency,[4],inactive
same,"activity change, negative = inhibition",[2],inconclusive: 16.6% [phenotype inactive]
same,Potency,[3],"inconclusive: 15.8 µM [inhibitor, partial curve, poor fit]"
same,Potency,[6],inactive
CC(=O)[C@@H]1CC[C@H]2[C@H]3CC[C@H]4C[C@@H](O)CC[C@]4(C)[C@@H]3CC[C@]12C,"activity change, negative = inhibition",[1],inconclusive: 44.5%
same,Potency,[4],"inconclusive: 7.94 µM [inhibitor, partial curve] [setting not given]"
same,Potency,[3],"inconclusive: 0.891 µM [inhibitor, partial curve, poor fit]"
Nc1ncnc2c1ncn2[C@@H]1O[C@@H](COP(=O)(O)CP(=O)(O)OP(=O)(O)O)[C@H](O)[C@@H]1O,"activity change, negative = inhibition",[1],"inconclusive: 36.9% [at 38.3 µM, stimulated with 10 pM TNF alpha]"
same,"activity change, negative = inhibition",[2],inconclusive: -12.6% [phenotype inactive]
same,Potency,[3],"inconclusive: 0.0045 µM [inhibitor, full curve, poor fit]"
COc1cc([C@@H](O)CN)ccc1O,Potency,[1],"inconclusive: 5.01 µM [inhibitor, single point]"
same,activation,[7],inconclusive: -31.7%
same,"activity change, negative = inhibition",[2],inconclusive: -25% [phenotype inactive]
same,Potency,[3],"inconclusive: 0.0891 µM [inhibitor, full curve, poor fit]"
NC[C@H](O)c1ccc(O)cc1,Potency,[1],"inconclusive: 5.01 µM [inhibitor, full curve] [setting not given]"
same,Potency,[7],"inconclusive: 12.6 µM [inhibitor, partial curve, poor fit] and inconclusive: 1.26 µM [inhibitor, full curve]"
same,"activity change, negative = inhibition",[2],inconclusive: -2.42% [phenotype inactive]
same,Potency,[3],inactive
same,Potency,[6],inactive
CC(=O)O.CC(=O)O.[Cd],Potency,[8],inactive
N[C@H](Cc1ccc(N(CCCl)CCCl)cc1)C(=O)O,Potency,[1],"inconclusive: 6.31 µM [inhibitor, full curve, poor fit]"
same,Potency,[4],"inconclusive: 6.31 µM [inhibitor, partial curve]"
COC(=O)[C@H]1[C@@H](c2ccccc2)[C@@]2(c3ccccc3)Oc3ccccc3[C@@]1(O)[C@@H]2O,Potency,[8],"inconclusive: 3.16 µM [inhibitor, partial curve]"
same,Potency,[9],"inconclusive: 3.98 µM [inhibitor, single point]"
FC(F)(F)c1cccc(N2CCNCC2)c1,Potency,[8],inactive
NCCCN1CCN(c2ccccc2)CC1,Potency,[5],"inconclusive: 3.16 µM [inhibitor, single point]"
COc1ccc2c(c1)[C@]13CCCC[C@@H]1[C@H](C2)NCC3,Potency,[5],active: 6.31 µM
same,"activity change, negative = inhibition",[1],inconclusive: -8.85%
same,"activity change, negative = inhibition",[2],inconclusive: 3.82% [phenotype inactive]
same,Potency,[3],"inconclusive: 3.16 µM [inhibitor, partial curve, poor fit]"
same,Potency,[6],inactive
CC(C)N[C@@H](C)Cc1ccc(I)cc1,"activity change, negative = inhibition",[1],inconclusive: -33.7%
same,activation,[7],inconclusive: -17.6%
same,"activity change, negative = inhibition",[2],inconclusive: -18.4% [phenotype inactive]
same,Potency,[3],active: 8.91 µM
same,Potency,[6],active: 14.1 µM

# From PubChem BioAssay (NCATS)
